{
  "sequences": {"note": "The chains behind the UniProt entries cited, without tags or fusion partners. Where a name states a change or a piece, a line headed by the entry shows the natural chain unless it says otherwise.", "UniProt Q14674": "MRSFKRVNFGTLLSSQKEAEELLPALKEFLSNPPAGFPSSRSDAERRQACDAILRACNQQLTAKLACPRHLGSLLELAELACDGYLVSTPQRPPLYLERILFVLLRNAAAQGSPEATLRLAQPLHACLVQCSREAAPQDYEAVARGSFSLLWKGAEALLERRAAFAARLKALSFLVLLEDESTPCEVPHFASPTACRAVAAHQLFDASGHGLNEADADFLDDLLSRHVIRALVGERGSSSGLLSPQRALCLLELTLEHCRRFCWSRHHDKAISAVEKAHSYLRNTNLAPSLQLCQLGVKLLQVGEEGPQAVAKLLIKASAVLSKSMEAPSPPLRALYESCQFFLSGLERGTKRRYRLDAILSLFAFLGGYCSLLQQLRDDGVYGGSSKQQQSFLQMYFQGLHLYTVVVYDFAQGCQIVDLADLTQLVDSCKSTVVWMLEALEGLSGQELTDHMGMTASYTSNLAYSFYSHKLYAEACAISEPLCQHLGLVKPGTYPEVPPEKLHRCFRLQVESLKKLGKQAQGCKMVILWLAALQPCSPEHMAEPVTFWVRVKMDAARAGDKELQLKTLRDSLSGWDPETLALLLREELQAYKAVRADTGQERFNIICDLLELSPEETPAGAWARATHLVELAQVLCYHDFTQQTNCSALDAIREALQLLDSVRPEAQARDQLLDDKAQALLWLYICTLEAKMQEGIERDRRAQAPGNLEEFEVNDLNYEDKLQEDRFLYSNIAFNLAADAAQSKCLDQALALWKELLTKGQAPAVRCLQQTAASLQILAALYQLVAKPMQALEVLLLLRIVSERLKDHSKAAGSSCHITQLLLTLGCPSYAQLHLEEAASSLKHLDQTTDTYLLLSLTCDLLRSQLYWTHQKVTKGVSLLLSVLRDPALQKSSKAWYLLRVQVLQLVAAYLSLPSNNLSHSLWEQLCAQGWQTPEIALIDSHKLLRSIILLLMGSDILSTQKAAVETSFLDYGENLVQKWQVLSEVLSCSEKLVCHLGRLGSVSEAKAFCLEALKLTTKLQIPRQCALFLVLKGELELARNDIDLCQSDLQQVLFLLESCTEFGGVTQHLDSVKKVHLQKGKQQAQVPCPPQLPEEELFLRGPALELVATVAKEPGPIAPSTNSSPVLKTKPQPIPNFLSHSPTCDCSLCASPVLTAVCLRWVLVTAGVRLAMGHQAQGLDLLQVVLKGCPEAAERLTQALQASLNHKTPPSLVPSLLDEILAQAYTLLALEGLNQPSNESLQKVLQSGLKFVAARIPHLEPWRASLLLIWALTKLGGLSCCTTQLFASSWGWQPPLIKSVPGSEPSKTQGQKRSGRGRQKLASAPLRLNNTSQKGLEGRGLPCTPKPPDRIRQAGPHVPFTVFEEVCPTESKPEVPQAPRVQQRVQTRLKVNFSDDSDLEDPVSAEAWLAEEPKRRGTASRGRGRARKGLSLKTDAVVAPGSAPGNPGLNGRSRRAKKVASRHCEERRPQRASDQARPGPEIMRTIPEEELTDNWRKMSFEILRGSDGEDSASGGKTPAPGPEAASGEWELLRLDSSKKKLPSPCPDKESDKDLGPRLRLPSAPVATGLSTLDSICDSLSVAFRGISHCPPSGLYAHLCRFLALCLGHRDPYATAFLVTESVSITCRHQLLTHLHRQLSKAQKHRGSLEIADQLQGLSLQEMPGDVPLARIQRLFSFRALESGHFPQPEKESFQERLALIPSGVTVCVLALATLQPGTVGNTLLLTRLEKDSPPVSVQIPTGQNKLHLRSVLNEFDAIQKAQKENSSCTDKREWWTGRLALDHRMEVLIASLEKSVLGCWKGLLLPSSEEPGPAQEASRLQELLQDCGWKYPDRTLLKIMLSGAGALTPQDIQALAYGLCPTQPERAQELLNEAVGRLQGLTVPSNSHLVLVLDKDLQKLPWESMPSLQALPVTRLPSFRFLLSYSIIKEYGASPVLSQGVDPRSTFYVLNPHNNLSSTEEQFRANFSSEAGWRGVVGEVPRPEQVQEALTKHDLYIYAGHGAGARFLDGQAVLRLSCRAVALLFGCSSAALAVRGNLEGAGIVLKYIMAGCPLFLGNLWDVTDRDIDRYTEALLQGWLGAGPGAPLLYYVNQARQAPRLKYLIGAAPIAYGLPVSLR", "UniProt P62258": "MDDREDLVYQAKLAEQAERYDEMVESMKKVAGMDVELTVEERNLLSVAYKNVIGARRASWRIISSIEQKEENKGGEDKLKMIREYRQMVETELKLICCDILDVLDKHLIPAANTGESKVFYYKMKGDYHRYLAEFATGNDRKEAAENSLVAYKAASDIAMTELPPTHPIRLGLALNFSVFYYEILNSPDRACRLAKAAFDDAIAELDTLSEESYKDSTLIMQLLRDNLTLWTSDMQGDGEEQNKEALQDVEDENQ"},
  "source": "paper PMC12301659",
  "key": {"[1]": {"target": "polo-like kinase 1 (Plk1), endogenous (human (endogenous in HCT116)) (UniProt P53350)", "assay": "co-IP; endogenous proteins, near-confluent HCT116 cells lysed in EBC buffer; antibody to 14-3-3ε, Plk1 or separase, or rabbit IgG; protein G–Sepharose; washed with NET-N; western blot"}, "[2]": {"target": "separase [also known as separin (ESPL1)], endogenous (human (endogenous in HCT116)) (UniProt Q14674)", "assay": "co-IP; endogenous proteins, near-confluent HCT116 cells lysed in EBC buffer; antibody to 14-3-3ε, Plk1 or separase, or rabbit IgG; protein G–Sepharose; washed with NET-N; western blot"}, "HA-tagged 14-3-3ε WT [3]": {"target": "HA-tagged 14-3-3ε WT (UniProt P62258)", "assay": "proximity ligation; Duolink PLA in fixed HCT116 cells expressing HA-tagged 14-3-3ε WT, co-transfected with GFP–Centrin2 and Myc-tagged Plk1 constructs; antibodies against the HA and Myc epitopes; puncta per cell"}, "HA-tagged 14-3-3ε WT [4]": {"target": "HA-tagged 14-3-3ε WT (UniProt P62258)", "assay": "co-IP; HCT116 cells transfected with HA-tagged 14-3-3ε constructs (with Myc-tagged Plk1 constructs where named); lysates incubated 3 h at 4°C with anti-HA antibody (12CA5), protein G–Sepharose, washed with NET-N; western blot"}, "[5]": {"target": "14-3-3ε (endogenous) (human (endogenous in HCT116)) (UniProt P62258)", "assay": "proximity ligation; Duolink PLA in fixed HCT116 cells with antibodies against endogenous 14-3-3ε and Plk1, separase or cdc25C; puncta per cell"}, "[6]": {"target": "14-3-3ε (endogenous) (human (endogenous in HCT116)) (UniProt P62258)", "assay": "co-IP; endogenous proteins, near-confluent HCT116 cells lysed in EBC buffer; antibody to 14-3-3ε, Plk1 or separase, or rabbit IgG; protein G–Sepharose; washed with NET-N; western blot"}, "HA-tagged 14-3-3ε D127A [7]": {"target": "HA-tagged 14-3-3ε D127A (UniProt P62258)", "assay": "proximity ligation; Duolink PLA in fixed HCT116 cells stably expressing GFP–Centrin2 and transfected with HA-tagged 14-3-3ε constructs; antibodies against HA and Plk1 or HA and separase; puncta per cell"}, "HA-tagged 14-3-3ε E134A [8]": {"target": "HA-tagged 14-3-3ε E134A (UniProt P62258)", "assay": "proximity ligation; Duolink PLA in fixed HCT116 cells stably expressing GFP–Centrin2 and transfected with HA-tagged 14-3-3ε constructs; antibodies against HA and Plk1 or HA and separase; puncta per cell"}, "HA-tagged 14-3-3ε WT [9]": {"target": "HA-tagged 14-3-3ε WT (UniProt P62258)", "assay": "proximity ligation; Duolink PLA in fixed HCT116 cells stably expressing GFP–Centrin2 and transfected with HA-tagged 14-3-3ε constructs; antibodies against HA and Plk1 or HA and separase; puncta per cell"}, "HA-tagged 14-3-3ε D127A [10]": {"target": "HA-tagged 14-3-3ε D127A (UniProt P62258)", "assay": "co-IP; HCT116 cells transfected with HA-tagged 14-3-3ε constructs (with Myc-tagged Plk1 constructs where named); lysates incubated 3 h at 4°C with anti-HA antibody (12CA5), protein G–Sepharose, washed with NET-N; western blot"}, "HA-tagged 14-3-3ε E134A [11]": {"target": "HA-tagged 14-3-3ε E134A (UniProt P62258)", "assay": "co-IP; HCT116 cells transfected with HA-tagged 14-3-3ε constructs (with Myc-tagged Plk1 constructs where named); lysates incubated 3 h at 4°C with anti-HA antibody (12CA5), protein G–Sepharose, washed with NET-N; western blot"}, "GST–14-3-3ε": {"target": "GST–14-3-3ε (UniProt P62258)", "assay": "pull-down; GST or GST fusion proteins bound to glutathione beads incubated with HCT116 lysates (untransfected or transfected with Myc-tagged constructs) in EBC lysis buffer, 4–5 h at RT or 16 h at 4°C; washed three times with NET-N; western blot; only the target purified"}, "GST–14-3-3ε D127A": {"target": "GST–14-3-3ε D127A (UniProt P62258)", "assay": "pull-down; GST or GST fusion proteins bound to glutathione beads incubated with HCT116 lysates (untransfected or transfected with Myc-tagged constructs) in EBC lysis buffer, 4–5 h at RT or 16 h at 4°C; washed three times with NET-N; western blot; only the target purified"}, "GST–14-3-3ε E134A": {"target": "GST–14-3-3ε E134A (UniProt P62258)", "assay": "pull-down; GST or GST fusion proteins bound to glutathione beads incubated with HCT116 lysates (untransfected or transfected with Myc-tagged constructs) in EBC lysis buffer, 4–5 h at RT or 16 h at 4°C; washed three times with NET-N; western blot; only the target purified"}, "GST–14-3-3εK50E": {"target": "GST–14-3-3εK50E (UniProt P62258)", "assay": "pull-down; GST or GST fusion proteins bound to glutathione beads incubated with HCT116 lysates (untransfected or transfected with Myc-tagged constructs) in EBC lysis buffer, 4–5 h at RT or 16 h at 4°C; washed three times with NET-N; western blot; only the target purified"}},
  "note": "No constants are given. Whether binding was seen depends on the method and setting. Binding seen in cells or lysates may run through a third protein. Some results given as binding are weak or reduced against the parent protein; the word gives no strength.",
  "data": [
    {"substance": "14-3-3ε (endogenous) (from UniProt P62258 1-255)", "values": [
      {"measurement": "binding", "setting": "[1]", "result": "binds"},
      {"measurement": "binding", "setting": "[2]", "result": "binds"}
    ]},
    {"substance": "Myc-tagged Plk1 S99A (from UniProt P53350 1-603) (enzyme)", "values": [
      {"measurement": "binding", "setting": "HA-tagged 14-3-3ε WT [3]", "result": "no binding"},
      {"measurement": "binding", "setting": "HA-tagged 14-3-3ε WT [4]", "result": "no binding"}
    ]},
    {"substance": "Myc-tagged Plk1 S99D (from UniProt P53350 1-603) (enzyme)", "values": [
      {"measurement": "binding", "setting": "HA-tagged 14-3-3ε WT [3]", "result": "binds"},
      {"measurement": "binding", "setting": "HA-tagged 14-3-3ε WT [4]", "result": "binds"}
    ]},
    {"substance": "Myc-tagged Plk1 S99E (from UniProt P53350 1-603) (enzyme)", "values": [
      {"measurement": "binding", "setting": "HA-tagged 14-3-3ε WT [3]", "result": "binds"},
      {"measurement": "binding", "setting": "HA-tagged 14-3-3ε WT [4]", "result": "binds"}
    ]},
    {"substance": "Myc-tagged Plk1 T210A (from UniProt P53350 1-603) (enzyme)", "values": [
      {"measurement": "binding", "setting": "HA-tagged 14-3-3ε WT [3]", "result": "binds"},
      {"measurement": "binding", "setting": "HA-tagged 14-3-3ε WT [4]", "result": "binds"}
    ]},
    {"substance": "polo-like kinase 1 (Plk1), endogenous (from UniProt P53350 1-603) (enzyme)", "values": [
      {"measurement": "binding", "setting": "[5]", "result": "binds"},
      {"measurement": "binding", "setting": "[6]", "result": "binds"},
      {"measurement": "binding", "setting": "HA-tagged 14-3-3ε D127A [7]", "result": "binds"},
      {"measurement": "binding", "setting": "HA-tagged 14-3-3ε E134A [8]", "result": "binds"},
      {"measurement": "binding", "setting": "HA-tagged 14-3-3ε WT [9]", "result": "binds"},
      {"measurement": "binding", "setting": "HA-tagged 14-3-3ε D127A [10]", "result": "binds"},
      {"measurement": "binding", "setting": "HA-tagged 14-3-3ε E134A [11]", "result": "binds"},
      {"measurement": "binding", "setting": "HA-tagged 14-3-3ε WT [4]", "result": "binds"},
      {"measurement": "binding", "setting": "GST–14-3-3ε", "result": "binds"},
      {"measurement": "binding", "setting": "GST–14-3-3ε D127A", "result": "binds"},
      {"measurement": "binding", "setting": "GST–14-3-3ε E134A", "result": "binds"},
      {"measurement": "binding", "setting": "GST–14-3-3εK50E", "result": "no binding"}
    ]}
  ]
}
